Test results as given in patent publication US20060057198A1, “Drug delivery from embolic agents” (BIOCOMPATIBLES UK LIMITED, priority 2003, published 2006).
Blank lines part the entries; values can stand above or below the compound they belong to.

Assays:
Assay type in all cases: physicochemical
[1] = Loading of diclofenac into low and high AMPS microspheres (UV of supernatant); conditions: 500-710 μm, 100 mg/ml in ethanol
Experimental: 5 ml of the solution was added to 0.5 ml of low AMPS and high AMPS microspheres of the present invention produced as outlined in example 1; both samples used microspheres having size range 500-710 μm, and uptake is monitored by UV. The samples were agitated on a roller mixer. Aliquots of supernatant were taken at 5,15, 30 and 240 mins and then 24 hr. Uptake was calculated from the diclofenac remaining in solution. Both types of the microspheres were loaded with similar doses of 26 mg (low AMPS beads) and 30 mg (high AMPS beads) per ml of hydrated microspheres (FIG. 6), and in less than 30 minutes, 99% of the drug solution is located in the microspheres. […] 18-26% release in first 5 minutes with a further 35% in 48 hrs (FIG. 7).

[2] = Loading of flurbiprofen into low and high AMPS microspheres (UV of supernatant); conditions: 500-710 μm, 100 mg/ml in ethanol
Experimental: Low AMPS and high AMPS microspheres of size 500-710 μm were used and drug uptake monitored by UV. The samples were agitated on a roller mixer. Aliquots of 3 0 supernatant were taken at 10, 20, 30, 60 mins and then at 2 hr, out to 24 hr. Uptake was calculated from the flurbiprofen remaining in solution. […] If microspheres were transferred to 100 ml of elutant, release was slow until eventually equilibrium was reached (FIG. 5).

[3] = Elution of ibuprofen free acid from low AMPS microspheres (Example 5, Table 1); conditions: range over experiments, up to 24 hrs
Experimental: (§1) The samples were agitated on a roller mixer. Samples of the supernatant were taken at 10, 20, 40, 60 mins and 24 hrs. Uptake was calculated from the ibuprofen remaining in solution. The microspheres could be loaded with different doses ranging from to 142-335 mg per ml of hydrated microspheres. Elution experiments were carried out on these microspheres (table 1). Microspheres were washed to determine quick burst in various media as in table 1. Then samples were placed in 10 ml solvent and absorbance read after 10 mins, a further 20 ml added and absorbance read after 10 mins, this was repeated up to 90 mis and elution was monitored up to 24 hrs (table 1).

[4] = Loading of ibuprofen free acid from ethanol into low AMPS microspheres (Example 5); conditions: 250 mg/ml in ethanol, range over series of experiments
Experimental: as §1

[5] = Loading of ibuprofen free acid into low AMPS beads (Example 8); conditions: loaded from ethanol
Experimental: Five samples of 1 ml of hydrated beads Low A<PS 700 to 1 100 μm were used. For each sample, 1 ml of beads in phosphate buffered saline (PBS), measured with a 10 ml-glass cylinder, was transferred to a glass container and all the PBS was carefully removed with a glass Pasteur pipette. […] Once prepared, the absorbances of the solution and dilutions were read by UV at 263 nm to produce a standard curve. […] As controls 2 ml of ethanol was added to one vial and 2 ml of PBS was added to another vial, each vial containing 1 ml of beads. The vials were placed on the roller mixer at room temperature for the entire experiment. At predetermined time points (0, 20, 40, 60 and 120 min). 100 μl was removed, diluted as necessary (1/200) and read at 263 nm. From the readings and the standard curve, the concentration of the solution at each time point was calculated. The amount of drug loaded onto the beads was measured by the depletion of the drug in solution. From the data the mg drug loaded per 1 ml of beads were calculated and the graph plotted (FIG. 12).

[6] = Elution of ibuprofen into PBS from beads loaded under different conditions (Example 9)
Experimental: Elution was carried out with 1 ml of the loaded beads transferred into a glass-brown container filled with 100 ml of PBS and timing was started. The containers were placed in the roller mixer at room temperature for the entire experiment. At predetermined times (15, 30, 60 and 3 and 5 hours) 1 ml of the solution was removed, read and then placed back into the container, so the volume remained constant for the entire experiment. […] From the data, the amount of drug eluted per 1 ml of hydrated beads was calculated and the graph plotted (FIG. 14). Controls from the experiment above were eluted in the same conditions.

[7] = Loading of ketoprofen into microspheres; conditions: at 24 hours, 30 mg/ml in ethanol
[8] = Loading of ketorolac into low AMPS microspheres (HPLC of supernatant)
Experimental: (§2) 5 ml of the solution was added to 0.5 ml of low AMPS microspheres, of size 500-710 μm, and uptake monitored by HPLC. The samples were agitated on a roller mixer. Aliquots of supernatant were taken at 5,10,20 40 and 60 mins and then 24 hr. Uptake was calculated from the ketorolac remaining in solution. The microspheres were loaded with similar approximately doses half the concentrations of the original loading solutions per ml of hydrated microspheres (FIG. 8), and in less than 10 minutes, 99% of the drug solution is located in the microspheres. […] From the high AMPS loaded microspheres 43% released. in first 5 minutes with a 90% in 1 hrs this was followed with a slow release of a further 4% in the next 24 hrs (FIG. 9).

[9] = Release of ketorolac from microspheres into water; conditions: next 24 hrs
Experimental: as §2

Compound: O=C(O)Cc1ccccc1Nc1c(Cl)cccc1Cl [Diclofenac]
dose loaded ([1]; high AMPS beads): 30 mg per ml of hydrated microsph
dose loaded ([1]; low AMPS beads): 26 mg per ml of hydrated microsph

Compound: CC(C(=O)O)c1cccc(C(=O)c2ccccc2)c1 (stereo not drawn) [Ketoprofen]
maximum loading ([7]; high AMPS microspheres): approximately 10 mg ketoprofen loaded/ml spheres
maximum loading ([7]; low AMPS microspheres): approximately 12 mg ketoprofen loaded/ml spheres

Compound: O=C(c1ccccc1)c1ccc2n1CCC2C(=O)O (stereo not drawn) [Ketorolac]
ketorolac loaded ([8]; higher loading): 27 mg/mL
ketorolac loaded ([8]; lower loading): 13 mg/mL
slow release of a further ([9]; high AMPS loaded microspheres): 4%
further released ([9]; low loaded microspheres): 5%

The next lines start with results.

dose loaded ([2]; high AMPS bead): 197 mg/mL
dose loaded ([2]; low AMPS): 195 mg per ml of hydrated microsph
Compound: CC(C(=O)O)c1ccc(-c2ccccc2)c(F)c1 (stereo not drawn) [Flurbiprofen]

Elution rate [3]: 20% -43%
time of optimum loading [5]: around 20 mins
release profile in buffer ([6]; beads exposed to ethanol after loading): slowed even more
release of the ibuprofen into PBS ([6]; where the pH has been adjusted after loading): slowed significantly
Compound: CC(C)Cc1ccc(C(C)C(=O)O)cc1 (stereo not drawn) [Ibuprofen]
doses loaded [4]: 142-335 mg per ml of hydrated microspheres
